84 compounds from ChEMBL document CHEMBL4888484, “Replenishing the malaria drug discovery pipeline: Screening and hit evaluation of the MMV Hit Generation Library 1 (HGL1) against asexual blood stage Plasmodium falciparum ,using a nano luciferase reporter read-out” (2022) can be followed below.

The campaign covered roughly 150,000 compounds. About 540 (0.36%) showed an effect of 50% or more. The list shows a part of the results.

For the assay, the system named is Plasmodium falciparum. The assay can be described thus: Primary screen in NF54 nanoGlo assay, in single point, at 2uM, 72h; a lower Z score goes with more inhibition. It counts as functional, Erythrocyte. To be noted: timepoint 72 hour.
By % Inhibition is commonly meant the relative decrease from the control value, in per cent. For the compound `CCc1ccc([C@@H]2CN(Cc3ncnn3C)CCO2)cc1`, the “% Inhibition” value is -6% and the Z score is listed as 0.76.
Turning to `COCCN(C)S(=O)(=O)c1ccc(Cl)c(F)c1Cl`, the “% Inhibition” value is -12% and the Z score was found to be 1.59.
In the case of `Cc1ccc(Cl)cc1S(=O)(=O)Nc1cnc2ccnn2c1`, the “% Inhibition” value turned out to be 8% and the Z score was -1.1.
Turning to `CCN(Cc1noc(-c2ccccc2)n1)[C@H]1CCS(=O)(=O)C1`, the “% Inhibition” value is recorded as -8% and the Z score came to 1.58.
As to `Cc1cc(C)cc(NCc2cn(-c3ccc(C(=O)O)s3)c3ccccc23)c1`, the “% Inhibition” value is -12% and the Z score came to 1.55.
As to `COc1cc(Cl)ccc1-c1nc(C)nc(N2CCCC2)c1N`, the “% Inhibition” value was 1% and the Z score is reported as -0.19.
Turning to `Cc1ccc(C(=O)N[C@H]2CO[C@H]3[C@@H]2OC[C@@H]3n2nnnc2Oc2ccccc2)cc1`, the “% Inhibition” value is -11% and the Z score stood at 1.73.
As to `Cn1ccnc1[C@@H](NC(=O)COc1ccc(Cl)cc1Cl)C1CC1`, the “% Inhibition” value is -5% and the Z score is 0.63.
On to `Cc1ccn2c(NC(=O)c3csc(C(C)(C)C)n3)nnc2c1`, for which the “% Inhibition” value is recorded as -3% and the Z score stood at 0.65.
On to `Nc1c(-c2ccccc2)nnc2c(-c3ccccc3)cnn12`, for which the “% Inhibition” value is -8% and the Z score is listed as 1.1.
Take `CCN1c2ccc(F)cc2C(=O)NC12CCN(C(=O)Cc1cccc(OC)c1)CC2`: the “% Inhibition” value was -4% and the Z score is recorded as 0.48.
`CCC(NC(=O)NCc1ncccc1F)C1CCCO1` (stereo not drawn): the “% Inhibition” value was -6% and the Z score amounted to 1.05.
Take `Cc1ccc(-c2nnc(CNCCc3[nH]nc4c3CCCC4)o2)n1C`: the “% Inhibition” value was 4% and the Z score was -0.54.
For the compound `CCN1C(=O)CC(CC(=O)N2CCC[C@H]2C(=O)OC)(c2cccc(C(F)(F)F)c2)C1=O` (stereo partly drawn), the “% Inhibition” value is recorded as 1% and the Z score was -0.18.
For the compound `CCNC(=O)N(CCN1CCOCC1)CC(=O)N1CCN(c2ccc(-c3ccc(OC)c(OC)c3)nn2)CC1`, the “% Inhibition” value is on record as -12% and the Z score is given as 1.44.
For `COc1nccc(NC(=O)N2CCOC(C(C)O)C2)n1` (stereo not drawn), the “% Inhibition” value was -8% and the Z score turned out to be 1.22.
Regarding `Cc1nc(CN2CCC(N3CCc4ccccc4C3)CC2)c[nH]1`, the “% Inhibition” value is -8% and the Z score was determined as 1.58.
Turning to `CC(C)CNC(=O)c1cc2c(OCc3ccccc3)cccc2n1CC(C)C`, the “% Inhibition” value is 6% and the Z score is recorded as -0.76.
As for `C=CCNC(=O)CN1CCOC(C)(C)C1`, the “% Inhibition” value is 3% and the Z score is listed as -0.34.
For `Cc1noc(C)c1CC(=O)N[C@H](c1ccc(C2CCCCC2)cc1)C(C)C` the same measures were -4% and 0.73.
For `CCC(C(=O)O)N1CCCC(Nc2cc(OC)cc(OC)c2)C1` (stereo not drawn), the “% Inhibition” value was determined as 0% and the Z score is on record as -0.01.
On to `Cc1cc(C)n(CC(=O)N2CCC[C@H](C(=O)c3ccc(Oc4ccccc4)cc3)C2)n1`, for which the “% Inhibition” value was 2% and the Z score is given as -0.3.
For `FC(F)(F)c1cnc(Nc2cnccn2)c(Cl)c1`, in that order: -2% and 0.26.
Consider `COc1cc(COc2cccc(-c3cn(C)cn3)c2)cc(OC)c1`, for which the “% Inhibition” value was found to be 0% and the Z score is 0.03.
`COc1ccc2c(c1)CCCN(C(=O)c1c(C)cnn1C)C2`: the “% Inhibition” value is given as -12% and the Z score is 1.49.
As for `O=C1Cc2ccccc2N1CCNS(=O)(=O)Cc1cc(Cl)ccc1F`, the “% Inhibition” value is on record as -3% and the Z score was determined as 0.48.
For `Cc1cccc(NC(=O)c2cc(N3CCCC3)ncn2)n1`, in that order: -11% and 2.14.
Consider `Cc1nnsc1CNC(=O)c1ccc(S(=O)(=O)NC2CC2)cc1`, for which the “% Inhibition” value is -3% and the Z score was determined as 0.23.
With `O=C(O)[C@@H]1CCCCN1Cc1csc2ccccc12`, the “% Inhibition” value is reported as -5% and the Z score turned out to be 0.67.
`NC(=O)Cc1cccc(NC(=O)N(CCC2=CCCCC2)CC2CC2)c1`: the “% Inhibition” value was -5% and the Z score was determined as 1.
As for `CCCOc1ccc(CCNC(=O)N2C[C@H]3C[C@H](O)[C@@H](O)C[C@H]3C2)cc1`, the “% Inhibition” value is listed as -22% and the Z score came out at 2.32.
For `CN(C)c1ncc(CN[C@H]2CC(=O)N(C3CC3)C2)n1C` the same measures were 5% and -0.55.
As for `Cc1ccc(CNC(=O)[C@H]2CCCN(S(=O)(=O)c3ccc4c(c3)NC(=O)CO4)C2)o1`, the “% Inhibition” value stood at 3% and the Z score was -0.45.
For `C=CCOc1ccccc1CN1C[C@@H](n2cnnn2)C[C@H]1C(=O)NCc1ccc(C)cc1` the same measures were -10% and 1.72.
As to `COC(=O)c1c(F)ccc(NC(=O)CC#N)c1C`, the “% Inhibition” value is -7% and the Z score amounted to 1.06.
With `C=CCC[C@@H](CN1CCCC1)Oc1ccc(OC)nn1`, the “% Inhibition” value stood at 4% and the Z score is on record as -0.74.
For `COc1ccc(C[C@H]2CCOC3(CCN(C(=O)Nc4ccccc4)CC3)C2)cc1`, the “% Inhibition” value is reported as -12% and the Z score amounted to 1.73.
As to `O=C(CCC1CCNCC1)NCc1ccc(Br)cc1`, the “% Inhibition” value was 6% and the Z score is reported as -0.87.
With `COc1ccc(Nc2nnc(-c3ccc(NC(=O)C(=O)NCCCn4ccnc4)cc3)s2)cc1`, the “% Inhibition” value is 66% and the Z score was -7.06.
For the compound `Cc1nc(-c2csc(S(=O)(=O)N3CCC[C@H](C(=O)Nc4ccc(C)c(F)c4)C3)c2)no1`, the “% Inhibition” value is given as -9% and the Z score was 1.04.
As to `O=C(NC1CCCCC1)c1c(-c2ccccc2)n(Cc2cccs2)c(=O)n1CCN1CCOCC1`, the “% Inhibition” value was -8% and the Z score was found to be 0.93.
For `Cc1n[nH]c(CNC(=O)[C@H]2CCC(=O)N(c3ccc(C)c(C)c3)C2)n1`, in that order: -1% and 0.22.
`CC(=O)Nc1ccc(F)c(C(=O)N2CCn3c(Cc4ccccc4)nnc3C2)c1`: the “% Inhibition” value came to 5% and the Z score is recorded as -0.91.
For `O=C(c1cccc(-n2cncn2)c1)N(C[C@H]1CCCO1)C1CCCC1` the same measures were -18% and 2.77.
On to `CCN(Cc1nc2ccccc2c(=O)[nH]1)C(=O)c1ccco1`, for which the “% Inhibition” value is reported as -1% and the Z score is reported as 0.14.
For `CCn1cc(CN2CCc3nnc(Cc4cccnc4)n3CC2)cc1C#N`, in that order: -4% and 0.57.
In the case of `Clc1ccc(NC[C@@H]2CCCO2)nc1`, the “% Inhibition” value is recorded as 1% and the Z score is recorded as -0.09.
In the case of `O=C(NCC1(c2cccc(F)c2)CCCCC1)C1CCNCC1`, the “% Inhibition” value was -7% and the Z score is 0.64.
`CCc1nc(NCC(C)(C)S(C)(=O)=O)c2ccsc2n1`: the “% Inhibition” value is recorded as -3% and the Z score is recorded as 0.29.
On to `CC1(C)CC(=O)N(C[C@H]2CCCO2)C1=O`, for which the “% Inhibition” value is given as -4% and the Z score amounted to 0.47.
On to `COc1ccc(C)cc1S(=O)(=O)N1CCCC[C@H]1c1ccnn1C`, for which the “% Inhibition” value is -7% and the Z score amounted to 0.87.
As to `COc1ccc(C(OC[C@@H](O)CN(C)C2CCCCC2)c2ccc(OC)cc2)cc1`, the “% Inhibition” value is given as -8% and the Z score was 1.31.
Regarding `COc1cccc(C(=O)N2CC(S(=O)(=O)Nc3ccccc3)C2)n1`, the “% Inhibition” value is reported as -6% and the Z score was 0.54.
For `CC1CCCN(CCOC(C)(C)C)C1CO` (stereo not drawn), in that order: -6% and 0.88.
For `Cc1nnc(CN(C)[C@H](CO)Cc2ccccc2)s1` the same measures were 19% and -2.39.
For `COCc1cc(NCc2cncn2CC(C)C)ncn1`, in that order: -7% and 1.33.
For the compound `Cc1nc(N2CCOCC2)ccc1NC(=O)c1cn(-c2ccc(F)cc2)nn1`, the “% Inhibition” value is reported as -9% and the Z score is 0.96.
With `O=C(NCc1ccc(N2CCCC2=O)cc1)Nc1ccc(Cl)c(Cl)c1`, the “% Inhibition” value stood at 2% and the Z score is given as -0.31.
For `COc1ccc2c(c1)OC[C@]1(CO)CN(Cc3c(F)cccc3Cl)C[C@H]21` the same measures were -9% and 1.32.
For `CC(NC(=O)NC1CCCNC1=O)c1ccc(N2CCOCC2)cc1` (stereo not drawn), in that order: -1% and 0.14.
As for `CCN(C(C)=O)c1nc2ccccc2n(CC(=O)Nc2ccccc2C(F)(F)F)c1=O`, the “% Inhibition” value is -7% and the Z score is 1.14.
For `O=C1[C@@H]2C[C@@H](CN2C2CCCC2)Oc2ccccc2N1Cc1ccccc1`, in that order: 17% and -1.93.
In the case of `Cc1cccc(-c2ncc(C(=O)N3CCN(C4CCCCC4)CC3)c(O)n2)c1`, the “% Inhibition” value is -15% and the Z score was determined as 2.97.
On to `O=C(c1cnn(-c2ccccc2)n1)N1CCC1`, for which the “% Inhibition” value is -5% and the Z score stood at 0.98.
With `C[C@H](O)C(=O)NC1CC(Cl)(Cl)C1`, the “% Inhibition” value is -20% and the Z score was determined as 2.03.
In the case of `Cc1cn2ccc(C(=O)NC(C)(C)[C@H](O)C(F)(F)F)cc2n1`, the “% Inhibition” value was -7% and the Z score is reported as 1.25.
`CN1CCCN(C(=O)C[C@H]2COCCN2Cc2cccc3nonc23)CC1`: the “% Inhibition” value is given as -8% and the Z score turned out to be 1.05.
`C[C@H](c1ccccc1)n1cnc2c(cnc(=O)n2C)c1=O`: the “% Inhibition” value is -12% and the Z score was 1.64.
With `Cc1cc(C#N)nc(N2C[C@H](c3ccccc3)C3(CCC3)C2)n1`, the “% Inhibition” value is given as -22% and the Z score was determined as 2.16.
Consider `CN(C)c1cc(NC(=O)N2CCC3(CC2)C[C@H](O)CNC3=O)ccn1`, for which the “% Inhibition” value was -2% and the Z score is recorded as 0.21.
Turning to `O=C(OC1CN(c2nc3ccccc3s2)C1)C1(c2ccccc2)CCOCC1`, the “% Inhibition” value is recorded as -13% and the Z score is 1.46.
In the case of `CC1CC(CN2CCC(n3c(=O)[nH]c4cccnc43)CC2)CCO1` (stereo not drawn), the “% Inhibition” value was -7% and the Z score is listed as 0.82.
On to `Cc1nc(C(=O)Nc2ccc(O[C@H]3CCOC3)cc2)nn1-c1ccccc1Cl`, for which the “% Inhibition” value is given as -17% and the Z score is 2.61.
On to `CC[C@H]1CCCCN1CCNC(=O)CCCn1ccnc1`, for which the “% Inhibition” value is recorded as -13% and the Z score amounted to 1.08.
Take `Cc1c[nH]c(C(=O)NC[C@H]2CC[C@H](CO)CC2)n1`: the “% Inhibition” value is 2% and the Z score is -0.4.
In the case of `Cc1nc(C)c(C)c(N(C)CCc2c[nH]cn2)n1`, the “% Inhibition” value is reported as -5% and the Z score was 0.56.
Regarding `Cc1ccc2c(c1)c1c(n2C[C@@H](O)Cn2ccnc2)C(=O)CCC1`, the “% Inhibition” value was -3% and the Z score turned out to be 0.38.
As for `Cc1nc(N(C)C)sc1CN1CCC(O)(C(F)(F)F)CC1`, the “% Inhibition” value is reported as -7% and the Z score came out at 0.91.
On to `Cc1ccc(-c2cc(C(=O)Nc3c(C(=O)c4ccccc4)oc4ccccc34)n[nH]2)c(O)c1C`, for which the “% Inhibition” value is on record as -2% and the Z score was 0.28.
Turning to `Cc1nc(S(C)(=O)=O)nc2ccc(C(C)C)cc12`, the “% Inhibition” value is -9% and the Z score is recorded as 1.21.
For `COC(=O)c1cccc(NC(=O)Nc2ccccc2)c1CN1CCN(c2ccccc2)CC1` the same measures were -8% and 1.17.
In the case of `CC(NC(=O)C(C)S(C)(=O)=O)c1ccc(-c2cccnc2)cc1` (stereo not drawn), the “% Inhibition” value is -8% and the Z score was determined as 0.8.
For `Cc1ccnc(O)c1C(=O)Nc1cc(-c2nccn2C)n[nH]1`, in that order: -7% and 1.39.
For `COc1ccc(N2C(=O)[C@@H]3[C@H](Cc4ccccc4)N[C@]4(C(=O)Nc5ccccc54)[C@@H]3C2=O)cc1`, the “% Inhibition” value is given as 5% and the Z score is -0.84.
